Experimental data: PubChem BioAssay AID624417 (National Center for Advancing Translational Sciences (NCATS), 2012)
Out of some 410,000 compounds screened, about 6,400 (1.6%) were called active. The inconclusive results got no clear call from the source; some entries with a clear call stand among them for comparison. Calls come from the whole dose curve; as a rule, active = well fitted inhibition curve with a large enough effect; inconclusive = small, poorly fitted or top-dose-only effect; inactive = no such curve, though single readings can be large or run the other way. No potency is given beside an inconclusive call; the fits are too rough.

These compounds were tested against Glucagon-like peptide 1 receptor (Homo sapiens) (UniProt P43220) (assay: qHTS of GLP-1 Receptor Inverse Agonists (Inhibition Mode)). Conditions: HEK293 GLP-1R CRE-luciferase, luminescence, 24 h, GLP-1R form is constitutively active; activity change, negative = inhibition: at 38.3 µM (top of the series) unless noted.
Summary of the method: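 Assay principle: reduced luminescence from a cAMP-responsive reporter in HEK293 cells co-expressing a constitutively active GLP-1R. Conditions: 24 hr compound incubation, 37 deg C, 5% CO2.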
% is set by controls: 0 for no effect and ±100 for the full control effect; potency is the fitted concentration of half-maximal effect; tags give direction and shape of the fitted curve.
Note: nearly all actives have a fitted effect of over 55% in size.

Chain of UniProt P43220 (P43220 whole entry, looked up): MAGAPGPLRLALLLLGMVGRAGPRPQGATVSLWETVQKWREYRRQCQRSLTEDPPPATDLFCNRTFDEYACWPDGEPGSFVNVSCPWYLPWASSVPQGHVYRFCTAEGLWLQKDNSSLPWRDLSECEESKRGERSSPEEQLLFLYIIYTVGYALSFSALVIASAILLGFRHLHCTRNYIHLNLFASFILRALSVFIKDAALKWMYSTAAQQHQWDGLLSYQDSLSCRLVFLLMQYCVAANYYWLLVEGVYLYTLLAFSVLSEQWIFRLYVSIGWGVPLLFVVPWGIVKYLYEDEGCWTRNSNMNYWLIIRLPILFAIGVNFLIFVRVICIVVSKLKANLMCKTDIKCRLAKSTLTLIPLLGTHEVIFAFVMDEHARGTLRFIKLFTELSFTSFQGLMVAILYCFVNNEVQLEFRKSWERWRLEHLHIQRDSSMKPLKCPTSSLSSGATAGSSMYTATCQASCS

Structure (SMILES)	Potency	activity change, negative = inhibition
Cc1ccc(Nc2cc(C)nc(-c3ccccc3O)n2)cc1	inconclusive [inhibitor, single point]	–
COc1cc(CN2CCc3c([nH]c4ccccc34)C2)cc(OC)c1	inconclusive [inhibitor, single point]	–
O=C(CC(=O)Nc1ccc(Cl)c(Cl)c1)N/N=C/c1ccc(O)cc1	inconclusive [inhibitor, partial curve, poor fit]	–
CC(C)(C)c1ccc(C(=O)Cn2nc(C(=O)O)c3ccccc3c2=O)cc1	inconclusive [inhibitor, single point]	–
CN(C)c1ccc(C(CN)c2c[nH]c3ccccc23)cc1 (stereo unspecified)	inconclusive [inhibitor, partial curve, poor fit]	–
Cc1csc(NC(=O)Nc2cccc(Cl)c2)n1	inconclusive [inhibitor, single point]	–
CC(C)(C)c1ccc2c(c1)C(=O)c1ccccc1C2=O	–	inactive: 18.3%
COc1cccc(NC(=O)C2C3C=CC4(O3)C2C(=O)N(CCN2CCCCC2)C4C(=O)NC2CCCCC2C)c1 (stereo unspecified)	inconclusive [inhibitor, partial curve, poor fit]	–
N/C(Cc1cccs1)=N\OC(=O)COc1ccccc1Cl	inconclusive [inhibitor, single point]	–
O=C(NC(=S)Nc1ccc(N2CCN(C(=O)c3ccccc3)CC2)cc1)c1cccs1	inconclusive [inhibitor, partial curve, poor fit]	–
O=C(Nc1ccncc1)c1ccccc1F	inconclusive [inhibitor, partial curve, poor fit]	–
Nc1[nH]c(N=NC(=O)c2ccccc2O)c2ccccc12	–	inactive: 0%
Nc1ccccc1-c1ccn[nH]1	inconclusive [inhibitor, partial curve, poor fit]	–
Cc1oc2ncnc(N3CCOCC3)c2c1C(=O)NCc1ccccc1	–	inactive: -0.648%
CCOCc1c(C(=O)N2CCN(CCOc3ccc(Cl)cc3)CC2)oc2ccccc12	inconclusive [inhibitor, partial curve, poor fit]	–
COc1ccc2[nH]c(=O)c3c(c2c1)OC(C)(C)C=C3	inconclusive [inhibitor, single point]	–
O=C(CCSCc1cnn(-c2ccccc2)c1-n1cccc1)NCc1ccc(Cl)cc1	inconclusive [inhibitor, single point]	–
CN(C)c1ccc(C(=O)Nc2nc3c(s2)CCCC3)cc1	active: 11.2 µM	–
CC(C)c1ccc2c(c1)C(N1CCN(C)CC1)Cc1cccnc1S2 (stereo unspecified)	inconclusive [inhibitor, partial curve, poor fit]	–
Cc1ccc(NC(=O)Cn2cc(C(=O)c3cccs3)c3ccccc32)cc1C	inconclusive [inhibitor, single point]	–
Cc1ccc(C(=O)c2cn(Cc3cccc(F)c3)c3nc(C)ccc3c2=O)cc1	inconclusive [inhibitor, single point]	–
Cc1ccccc1C(=O)NC1(C(F)(F)F)C(=O)Nc2c1c(=O)[nH]c(=O)n2CCc1ccccc1 (stereo unspecified)	–	inactive: 23.5%

Structure (SMILES)	Potency	activity change, negative = inhibition
O=C(c1cc(=O)[nH]c2ccccc12)N1CCN(S(=O)(=O)c2ccc3ccccc3c2)CC1	inconclusive [inhibitor, single point]	–
COc1ccc(C(=O)O/N=C(\N)c2ccccc2)c(OC)c1	inconclusive [inhibitor, partial curve, poor fit]	–
Cc1cc(C)cc(NC(=O)CSc2nc3c(cnn3-c3ccc(F)cc3)c(=O)[nH]2)c1	–	inactive: 10.2%
CN(C)CCCO/N=C(\c1ccccc1)c1ccncc1	inconclusive [inhibitor, single point]	–
Cc1[nH]c2ccccc2c1/C=N/NC(=S)NCc1ccccc1	inconclusive [inhibitor, single point]	–
COc1ccc(/C=C/CN2CCC(n3nccc3NC(=O)C3CCCC3)CC2)cc1	inconclusive [inhibitor, partial curve]	–
N#CC1=C(N)OC2=C(CC/C2=C\c2ccccc2Cl)C1c1ccccc1Cl (stereo unspecified)	inconclusive [inhibitor, single point]	–
CCOc1ccc2nc(NC(=O)Nc3cccs3)sc2c1	inconclusive [inhibitor, single point]	–
O=C(CN1CCCCCC1)Nc1ccccc1C(=O)Nc1ccccc1	inconclusive [inhibitor, partial curve, poor fit]	–
Cc1ccc(OCCC(=O)OC(C)C(=O)Nc2ccc(Cl)cn2)cc1 (stereo unspecified)	–	inactive: -11.4%
CN(C)CCCNC(=O)c1cc(C(=O)c2c(Cl)cccc2Cl)c[nH]1	inconclusive [inhibitor, partial curve, poor fit]	–
NC(=O)C1CCN(Cc2nc3cc(Cl)ccc3c(=O)[nH]2)CC1	–	inactive: -9.58%
CN(CC(=O)Nc1ccc(Cl)c(S(=O)(=O)N(C)C)c1)Cc1ccccc1	inconclusive [inhibitor, single point]	–
C=CCn1c(C(C)NC(=O)C(C)(C)C)nc2ccccc21 (stereo unspecified)	inconclusive [inhibitor, single point]	–
CC1Sc2ccc(S(=O)(=O)CCC(=O)N3CCN(c4ccccc4)CC3)cc2NC1=O (stereo unspecified)	inconclusive [inhibitor, single point]	–
CN(C)c1ccc(-c2ccnc3c2CC(C)(C(=O)Nc2cccc(Oc4ccccc4)c2)O3)cc1 (stereo unspecified)	inconclusive [inhibitor, single point]	–
COc1cccc(NC(=O)C(Cc2ccccc2)NC(=O)C2CCC(C)CC2)c1 (stereo unspecified)	inconclusive [inhibitor, partial curve, poor fit]	–
Cc1nc2c(C(=O)NCCc3ccccc3)c[nH]n2c(=O)c1Cc1ccccc1F	inconclusive [inhibitor, single point]	–
COc1ccc(C(=O)Nc2ccc3nc(N4CCCCC4)cc(C)c3c2)cc1OC	inconclusive [inhibitor, partial curve]	–
CC1=C(C(=O)Nc2ccccc2)C(c2ccco2)C(C#N)=C(SCC(=O)OC(C)C)N1 (stereo unspecified)	inconclusive [inhibitor, partial curve]	–
COc1ccc(CCNC(=O)c2ccc(CSCc3ccc(C)cc3)o2)cc1OC	inconclusive [inhibitor, single point]	–
Cc1cc(C)nc(N2CCC(C(=O)NC3CCCCCC3)CC2)n1	–	inactive: 0%

Structure (SMILES)	Potency	activity change, negative = inhibition
CC1CN(Cc2c(O)ccc3c2oc(=O)c2ccccc23)CC(C)O1 (stereo unspecified)	–	inactive: 20.3%
COc1c(C)cc(C(O)c2ncc(-c3ccc4ccccc4c3)[nH]2)cc1C (stereo unspecified)	inconclusive [inhibitor, single point]	–
O=C(COc1ccc(Cl)cc1Cl)NC(=O)NC1CCCC1	inconclusive [inhibitor, single point]	–
CC(C)Nc1ccc(C(CC(N)=O)NC(=O)Cc2ccc(Br)cc2)cc1[N+](=O)[O-] (stereo unspecified)	inconclusive [inhibitor, partial curve, poor fit]	–
COc1ccccc1CNC(=O)C12CC3CC(CC(C3)C1)C2	active: 11.2 µM	–
CCOC(=O)[C@]12CCCC=C1N(Cc1ccco1)C(=O)[C@H](CC(=O)NCCCOC)C2	–	inactive: 11.3%
Cc1ccc(/C=N/NC(=O)c2cccc(S(=O)(=O)Nc3ccccc3Cl)c2)o1	–	inactive: 1%
Fc1ccc(Nc2c(-c3c[nH]c4ccccc34)nc3ccccn23)cc1	inconclusive [inhibitor, partial curve, poor fit]	–
CCOc1ccc(Cc2c(Cl)nc(SC)nc2N(C)C)cc1	inconclusive [inhibitor, partial curve]	–
CCOC(=O)CSc1nnc(Cc2ccccc2)n1-c1ccc(C)cc1	inconclusive [inhibitor, single point]	–
Cn1c(SCc2nc(-c3ccc(Cl)cc3)no2)nnc1-c1ccccc1	inconclusive [inhibitor, single point]	–
Cc1ccc(OCCSc2nc3ccccc3n2CC(=O)NC(C)C)cc1	–	inactive: 10.2%
Cc1ccccc1Cn1nnc(-c2ccc3c(c2)OCO3)n1	inconclusive [inhibitor, single point]	–
O=[N+]([O-])c1ccc(S(=O)(=O)CC(CN2CCOCC2)N2CCOCC2)cc1 (stereo unspecified)	–	inactive: 9.27%
O=c1[nH]c2ccc(Cl)cc2c(-c2ccccc2)c1SC(=S)N1CCCCC1	inconclusive [inhibitor, single point]	–
COc1ccc(-c2cc([C@H]3[C@@H]4C=CCC[C@@]4(C)C(=O)N3Cc3ccccc3)ccc2F)cc1	active: 10 µM	–
O=C1N/C(=N/O)S/C1=C/c1cccc([N+](=O)[O-])c1	–	inactive: 6.75%
COc1ccccc1C(=O)Nc1ccccc1C(=O)NCc1ccco1	inconclusive [inhibitor, single point]	–
CCN(c1ccccc1)S(=O)(=O)c1ccc(N2CCN(c3ccc(OC)cc3)CC2)nc1	–	inactive: -10.1%
O=C(Nc1ccc(OC(F)(F)F)cc1)C(NS(=O)(=O)c1cccc2nsnc12)c1ccccc1 (stereo unspecified)	inconclusive [inhibitor, partial curve, poor fit]	–
Cc1cc(C)cc(NC(=O)CCc2nc3sc4c(c3c(=O)[nH]2)CCCC4)c1	inconclusive [inhibitor, single point]	–
C/C(=N\NC(=O)c1nnn(-c2nonc2N)c1CN(C)c1ccccc1)c1ccccc1O	inconclusive [inhibitor, partial curve, poor fit]	–
